# Measured values from the supplement of paper PMC3334620.
# Whole data set: some 33,000 sequences, median “E-score (-0.5 to 0.5)” near -0.056, cut for the highest 2% near 0.38. The list shows a part of the results.
# Target: Stb4 (UniProt P50104)
# Assay: PBM E-score (8-mer binding enrichment) (E-score (-0.5 to 0.5)); higher = stronger / more preferred TF binding; most listed sequences are background and not binding sites
# Conditions: protein concentration: 200 nM; construct: GST-DNA-binding domain
# How it was run: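 For each ungapped eight-base word taken together with its reverse complement, the Universal PBM Analysis Suite assigned an E-score. Binding data came from GST-tagged yeast transcription factors, applied at about 100-200 nM, on universal all-10-mer Agilent arrays made double-stranded by primer extension. Fluorescent anti-GST marked bound protein, and scans were normalised with masliner.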
row,Sequence,PBM E-score
1,CATGTCGA,-0.0821
2,TAATTTGA,-0.151
3,TACTTATA,-0.0844
4,AAAGATCT,-0.178
5,AAACCTTT,0.046
6,CCAGTTCC,0.224
7,TATAGCCA,-0.113
8,CGGCGGCA,0.179
9,CGGCAGTC,0.31
10,CGATGTTC,0.117
11,GGTCCGGA,0.34
12,GAACAAGA,0.0889
13,GCGGCGCA,-0.0865
14,ATTGGTGC,0.0227
15,CTATACAA,-0.235
16,TAATAATA,-0.144
17,CGGAGCGC,0.202
18,GTTCTGAA,-0.216
19,CAGCACCA,-0.0655
20,TAGGCTCA,-0.184
21,CAGATCCG,0.416
22,AAATAGCC,0.141
23,CACAACTG,-0.216
24,GGCAGCAC,-0.139
25,CTTGGAAC,-0.0942

row,Sequence,PBM E-score
1,CATTATCC,0.21
2,CACGGTAC,0.0444
3,GCGTTCTA,0.00522
4,AAAGATGG,-0.159
5,GAAGTATA,0.139
6,GAGCATGA,-0.195
7,CCTGCACC,-0.0562
8,TCTTGACA,-0.0935
9,ACTAAGTG,-0.0548
10,CGGTCTAA,0.0119
11,CGGGCGTA,0.079
12,GAGGAGCA,0.0497
13,ATCGTTTC,-0.0895
14,CCAGAACA,-0.0874
15,AAAACTAG,-0.0234
16,GCAAAGCC,-0.177
17,AACCTGGT,0.052
18,ACTAGCCT,-0.121
19,ACCAGGAA,-0.0286
20,ACACCCCT,0.142
21,CAATCTGA,-0.0386
22,CAGCTCAC,-0.188
23,CTTTGTCC,-0.00211
24,ACCCCGCC,0.227
25,ACCAACAG,0.00557

row,Sequence,PBM E-score
1,CCCGCCCA,0.229
2,CTCCATGC,-0.166
3,AAATGCTT,-0.0856
4,AATCCGCC,0.218
5,CCGATCGG,0.373
6,TCAGCACA,-0.223
7,ACGGATGA,0.316
8,ATCCAGAT,-0.0692
9,ACGTTAGT,-0.131
10,CCCCTTCA,-0.237
11,GGCTAGGA,-0.158
12,GTTCGGAA,0.474
13,GCGTACCA,-0.227
14,AGTGGCGC,-0.103
15,GGCAGACC,-0.0364
16,GAGTCGGC,0.223
17,AGGGTGTG,-0.0224
18,ACCTTCGT,-0.0808
19,CTCTTTCA,-0.128
20,CGTCAGAA,-0.193
21,AAAGCTAT,-0.00392
22,AATGCACC,0.143
23,CATAGAGC,-0.219
24,CTGGAAGC,-0.244
25,AATTAACC,0.231

row,Sequence,PBM E-score
1,ATACGACA,-0.222
2,ATAAGAAT,-0.0747
3,AAAGGCCA,-0.2
4,AGCAACGC,-0.168
5,ACATTACA,-0.153
6,ACCAGTAA,0.0512
7,ACTGACTC,0.00376
8,GATCCATA,0.0378
9,GAACGCCA,0.0483
10,ACCCGGTA,0.292
11,TGCTTGAA,-0.0812
12,CAAGTGAC,-0.0298
13,CTGAGGTC,-0.243
14,CTGGGTTA,-0.125
15,GAGGTTCC,0.228
16,CCTCTTGC,-0.0811
17,CCTCGGGC,0.288
18,CGCGAGTA,0.0512
19,CCACATTA,-0.194
20,ACGGAGGA,0.146
21,AACGACGG,0.199
22,CATTGTGA,-0.092
23,GGCCTCAC,0.011
24,AAACTGTG,-0.12
25,GATGACAA,0.047

row,Sequence,PBM E-score
1,AGGCGCTC,-0.0622
2,GCGAACAC,-0.198
3,TAACTCAA,-0.0973
4,CCTTGCAG,-0.139
5,ATCTGCTG,-0.199
6,ATATGCGA,-0.0377
7,CCAGGGGC,-0.404
8,CTCCCCCA,-0.129
9,CTCACCTC,-0.159
10,CTGAACCA,-0.197
11,TGAATCCA,-0.128
12,AATCGTGC,0.115
13,GTCCAAAA,0.107
14,CAACGAGC,-0.231
15,AAAAAGTC,0.0782
16,AACGACAT,-0.103
17,TGCAGACA,-0.191
18,AAGGCTGC,0.00401
19,CTTTCAGA,-0.00262
20,CTAGTCGA,-0.129
21,ACCAGACA,-0.132
22,GACCATGA,-0.115
23,CTATACCA,-0.226
24,CGAGTCAG,-0.111
25,AACTTGAT,-0.147

row,Sequence,PBM E-score
1,GGACGTAC,-0.117
2,AGTAGTAT,0.0108
3,ACAGCAGC,-0.185
4,CACTCCAG,-0.0844
5,CAGCTGAG,-0.274
6,CGACGGCG,0.0996
7,ACTTACCT,-0.147
8,CGCCAATA,0.0151
9,AATGCCTA,0.0358
10,GAAGTAAA,0.111
11,AGTGAGAC,-0.0907
12,TCATGGGA,-0.318
13,CTAGGCGC,-0.0905
14,ACAACAGA,-0.302
15,TACCCGAA,0.476
16,CGCACCTA,-0.174
17,ACATATCG,-0.0909
18,CGTACTTC,0.147
19,ATAGGCAG,-0.255
20,GAGGTTCA,0.012
21,CATTTCTC,-0.0047
22,TGAGAAAA,-0.269
23,GCACTGCC,0.0788
24,AACCCCCA,-0.178
25,AAACCGAT,0.131

row,Sequence,PBM E-score
1,CAGCGGCC,-0.0303
2,GCGGCTCA,0.13
3,CGTTATAG,-0.167
4,ATGTGGTG,0.0268
5,TCGTGTCA,-0.185
6,ACTGATTA,-0.0509
7,CCCTGCGC,-0.181
8,AAACTATG,-0.197
9,ACGTTAAA,-0.0672
10,CCACGTAG,-0.217
11,CGTTAAAG,0.0122
12,CGTGCTTC,0.15
13,GCGCTTCA,-0.0611
14,AAGACCAA,-0.12
15,AAGGGGCG,0.0504
16,GAGACTGC,0.0509
17,AACTTATC,0.187
18,ATCACCCC,-0.103
19,AGCCCAGA,-0.209
20,CTAAAAAC,-0.105
21,CCTAGCCG,0.269
22,GCGCGTCC,-0.0498
23,AGGATCCT,-0.218
24,CTGTACAG,-0.11
25,CTTTGGGA,-0.158

row,Sequence,PBM E-score
1,CGAAGCTA,-0.0183
2,GCAACAAA,-0.0254
3,CGCCTCTA,-0.0795
4,CCGACAGA,0.297
5,CCCCACAA,-0.0714
6,ATGCTTGC,-0.059
7,ACATTACG,0.0323
8,AGAGGCGC,-0.0768
9,ACGACCAC,-0.177
10,GGCTAGAA,0.106
11,ACGCCCCT,-0.247
12,AGAGTGAA,-0.0295
13,CGGCGCCC,0.0849
14,ATCGGGGA,0.243
15,AGCGGATA,0.386
16,CGGCTCTC,0.205
17,GAGCTCAA,0.0672
18,ACGTTCCT,-0.168
19,CTAACAAG,-0.27
20,GGAATACA,0.181
21,ACCAAGAG,-0.174
22,AACGTCGA,-0.157
23,CAAACGTG,-0.0874
24,CACAATAG,0.0246
25,TAGCATAA,-0.0894

row,Sequence,PBM E-score
1,GGCCGGAA,0.371
2,CTCGCTTC,0.0963
3,ACGGTAGC,-0.104
4,ACATATGG,-0.226
5,GGCGCAGA,-0.03
6,CTACAACC,0.0951
7,ATCCCCCA,-0.281
8,GAACGCCC,-0.0187
9,ACTGGAAG,-0.283
10,GCCTAAGC,-0.138
11,AATTACGT,-0.187
12,ATGTGATA,-0.266
13,ACGAGCGC,-0.0806
14,AATTTGGC,-0.158
15,AAGACGGG,0.223
16,GACCGTAA,-0.0967
17,AGACGGAC,-0.0259
18,CAGCTCTC,-0.0779
19,CAGCAGTA,-0.213
